Assay results taken from the supplement of paper PMC4967469.
A lower IC50 marks a more sensitive line; where the fit passes the top or lowest dose, that dose stands as a limit. AUC is the area under the same curve over the 256-fold range up to the top dose, as a fraction; values near 1 show little effect. For some assays here: A top dose marked as inferred was calculated from the reported fits. For some assays here: An entry number marks a drug with two screens in the source, which often give different values.

Legend:
Assay in all cases: Viability of human cancer cell lines after 72 h of drug (GDSC screen)
Y-39983 = compound: C[C@@H](N)c1ccc(C(=O)Nc2ccnc3[nH]ccc23)cc1 [Y-39983]; conditions: top dose 20 µM; top dose inferred
Description: (§1)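 Human cancer cell lines in 384-well plates, medium with 10% serum, drug for 72 h over a 256-fold dose range (nine 2-fold or five 4-fold steps up to the top dose). Adherent lines were fixed and stained with the nucleic acid dye Syto60, suspension lines read with resazurin; signal relative to control wells, capped at 0 and 100%. One two-parameter sigmoid per drug and line, fitted in a mixed model over all curves with the slope shared within a line.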

TPCA-1 = compound: NC(=O)Nc1sc(-c2ccc(F)cc2)cc1C(N)=O [TPCA-1]; conditions: top dose 20 µM
Description: as §1

PLX4720 = compound: CCCS(=O)(=O)Nc1ccc(F)c(C(=O)c2c[nH]c3ncc(Cl)cc23)c1F [PLX4720]; conditions: top dose 10 µM
Description: as §1

PHA-793887 = compound: CC(C)CC(=O)Nc1n[nH]c2c1CN(C(=O)C1CCN(C)CC1)C2(C)C [PHA-793887]; conditions: top dose 10.24 µM
Description: as §1

Epothilone B = compound: C/C(=C\c1csc(C)n1)[C@@H]1C[C@@H]2O[C@]2(C)CCC[C@H](C)[C@H](O)[C@@H](C)C(=O)C(C)(C)[C@@H](O)CC(=O)O1 [Epothilone B]; conditions: top dose 0.032 µM; top dose inferred
Description: as §1

[1] = screen: GDSC drug entry 1371, top dose inferred

| Cell Line | AUC (Y-39983) | IC50 (Y-39983) | AUC (TPCA-1) | IC50 (TPCA-1) | AUC (PLX4720; screen: GDSC drug entry 1036) | IC50 (PLX4720; screen: GDSC drug entry 1036) | AUC (PLX4720; [1]) | IC50 (PLX4720; [1]) | AUC (PHA-793887) | IC50 (PHA-793887) | AUC (Epothilone B) | IC50 (Epothilone B) |
| --- | --- | --- | --- | --- | --- | --- | --- | --- | --- | --- | --- | --- |
| OVCA433 (ovary, adherent) | 0.9 | > 20 µM | 0.939 | > 20 µM | 0.985 | > 10 µM | 0.983 | > 10 µM | 0.957 | > 10.2 µM |  |  |
| OVK-18 (ovary, adherent) | 0.981 | > 20 µM | 0.973 | > 20 µM | 0.986 | > 10 µM | 0.984 | > 10 µM | 0.948 | > 10.2 µM |  |  |
| PEO1 (ovary, adherent) | 0.983 | > 20 µM | 0.909 | > 20 µM | 0.985 | > 10 µM | 0.984 | > 10 µM | 0.987 | > 10.2 µM |  |  |
| QGP-1 (pancreas, adherent) | 0.92 | > 20 µM | 0.842 | > 20 µM | 0.967 | > 10 µM | 0.976 | > 10 µM | 0.741 | 4.91 µM |  |  |
| RCC-AB (kidney, adherent) | 0.931 | > 20 µM | 0.801 | 13.5 µM | 0.978 | > 10 µM | 0.716 | 3.12 µM | 0.867 | > 10.2 µM |  |  |
| RCC-ER (kidney, adherent) | 0.985 | > 20 µM | 0.986 | > 20 µM | 0.955 | > 10 µM | 0.968 | > 10 µM | 0.983 | > 10.2 µM |  |  |
| RCC-FG2 (kidney, adherent) | 0.951 | > 20 µM | 0.836 | 18.7 µM | 0.916 | > 10 µM | 0.931 | > 10 µM | 0.979 | > 10.2 µM |  |  |
| RCC-JF (kidney, adherent) | 0.707 | 5.22 µM | 0.814 | 12.7 µM | 0.922 | > 10 µM | 0.961 | > 10 µM | 0.806 | 6.03 µM |  |  |
| RCC-JW (kidney, adherent) | 0.909 | > 20 µM | 0.908 | > 20 µM | 0.952 | > 10 µM | 0.979 | > 10 µM | 0.556 | 0.914 µM |  |  |
| RCC-MF (kidney, adherent) | 0.837 | 19.4 µM | 0.76 | 9.05 µM | 0.928 | > 10 µM | 0.942 | > 10 µM | 0.872 | > 10.2 µM |  |  |
| SCC90 (head and neck, adherent) |  |  |  |  | 0.981 | > 10 µM | 0.978 | > 10 µM |  |  | 0.689 | 0.00854 µM |
| SK-GT-4 (oesophagus, adherent) | 0.976 | > 20 µM | 0.936 | > 20 µM | 0.861 | > 10 µM | 0.97 | > 10 µM | 0.894 | > 10.2 µM |  |  |
| SK-MEL-5 (melanoma, adherent) | 0.983 | > 20 µM | 0.983 | > 20 µM | 0.664 | 1.99 µM | 0.75 | 3.91 µM | 0.919 | > 10.2 µM |  |  |
| SK-MG-1 (glioma, adherent) | 0.888 | > 20 µM | 0.935 | > 20 µM | 0.987 | > 10 µM | 0.986 | > 10 µM | 0.915 | > 10.2 µM |  |  |
| SNU-61 (large intestine, adherent) | 0.98 | > 20 µM | 0.863 | > 20 µM | 0.983 | > 10 µM | 0.976 | > 10 µM | 0.666 | 2.17 µM |  |  |
| SNU-81 (large intestine, adherent) | 0.968 | > 20 µM | 0.977 | > 20 µM | 0.97 | > 10 µM | 0.979 | > 10 µM | 0.681 | 2.45 µM |  |  |
| SNU-407 (large intestine, adherent) | 0.865 | > 20 µM | 0.635 | 3.16 µM | 0.974 | > 10 µM | 0.978 | > 10 µM | 0.835 | 8.42 µM |  |  |
| SNU-475 (liver, adherent) | 0.93 | > 20 µM | 0.918 | > 20 µM |  |  |  |  | 0.96 | > 10.2 µM | 0.884 | 0.0276 µM |
| SNU-1040 (large intestine, adherent) | 0.904 | > 20 µM | 0.718 | 6.51 µM |  |  | 0.94 | > 10 µM | 0.697 | 2.79 µM |  |  |
| SNU-C5 (large intestine, adherent) | 0.963 | > 20 µM | 0.905 | > 20 µM | 0.909 | > 10 µM | 0.886 | > 10 µM | 0.892 | > 10.2 µM |  |  |
| STS-0421 (soft tissue, adherent) |  |  |  |  | 0.983 | > 10 µM | 0.98 | > 10 µM |  |  | 0.649 | 0.00556 µM |
| SU-DHL-10 (B-cell lymphoma, suspension) | 0.859 | 9.51 µM | 0.645 | 2.8 µM | 0.98 | > 10 µM | 0.997 | > 10 µM | 0.182 | 0.107 µM |  |  |
| SW1116 (large intestine, adherent) | 0.985 | > 20 µM | 0.98 | > 20 µM |  |  | 0.984 | > 10 µM | 0.984 | > 10.2 µM |  |  |
| TE-4 (oesophagus, adherent) | 0.983 | > 20 µM | 0.979 | > 20 µM | 0.983 | > 10 µM | 0.964 | > 10 µM | 0.82 | 5.84 µM |  |  |
| UWB1.289 (ovary, adherent) | 0.98 | > 20 µM | 0.794 | 15 µM | 0.955 | > 10 µM | 0.972 | > 10 µM | 0.925 | > 10.2 µM |  |  |
| VMRC-RCW (kidney, adherent) | 0.975 | > 20 µM | 0.937 | > 20 µM |  |  |  |  | 0.98 | > 10.2 µM | 0.309 | 0.00061 µM |
| YH-13 (glioma, adherent) | 0.9 | > 20 µM | 0.887 | > 20 µM | 0.972 | > 10 µM | 0.979 | > 10 µM | 0.979 | > 10.2 µM |  |  |
